According to PubChem BioAssay (NCATS):
Inconclusive results, whose numbers are uncertain, are shown with a selection of clear calls. No potency is given beside an inconclusive call; the fits are too rough. Activity calls are given as the source filed them. The call rests on the fitted dose curve; in most records, active means well fitted curve in the direction sought with a large enough effect; inconclusive means small, poorly fitted or top-dose-only effect, or another doubt; inactive means no such curve, though single readings can be large; an effect the other way counts as inactive or inconclusive.

What was measured:
[1] = target: Rap guanine nucleotide exchange factor 3 (Homo sapiens) (UniProt O95398); experiment: Confirmatory qHTS for antagonist of cAMP-regulated guanine nucleotide exchange factor 3 (EPAC1) (AID 1645880); conditions: EPAC1 Rap1B-BODIPY-GDP exchange, fluorescence; activity, negative = inhibition: at 115 µM (top of the series); further: nearly all actives have a fitted effect of over 55% in size;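 on activity, negative = inhibition: plate controls were DMSO only for no effect and full effect of the ATA control for full effect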
Method in brief: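 Released BODIPY-GDP fluoresces less than Rap1-bound BODIPY-GDP; the signal is followed at 480/540 nm at 5-min intervals over 30 min, after 5 min at room temperature. Reactions contain 100 nM EPAC1, 250 nM RAP1B-BODIPY-GDP and 50 uM GDP; results are normalized to ATA and DMSO.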

[2] = target: Rap guanine nucleotide exchange factor 3 (Homo sapiens) (UniProt O95398); experiment: Counterscreen qHTS for agonist of cAMP-regulated guanine nucleotide exchange factor 3 (EPAC1) (AID 1645889); conditions: EPAC1 Rap1B-BODIPY-GDP exchange, fluorescence; activation: at 154 µM (top of the series) unless noted; further: nearly all actives have a fitted effect of over 40% in size; on activation: % of control where 0% means no effect
Method in brief: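 Measured: fluorescence of BODIPY-GDP bound to Rap1B, which falls as exchange proceeds. Conditions include 50 uM competing GDP, 5 and 30 min reads, and a later cAMP challenge for antagonist detection.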
Potency means the concentration at half of the fitted maximal effect; tags describe the fitted curve by direction and shape.

UniProt O95398, sequence (O95398 whole entry, looked up): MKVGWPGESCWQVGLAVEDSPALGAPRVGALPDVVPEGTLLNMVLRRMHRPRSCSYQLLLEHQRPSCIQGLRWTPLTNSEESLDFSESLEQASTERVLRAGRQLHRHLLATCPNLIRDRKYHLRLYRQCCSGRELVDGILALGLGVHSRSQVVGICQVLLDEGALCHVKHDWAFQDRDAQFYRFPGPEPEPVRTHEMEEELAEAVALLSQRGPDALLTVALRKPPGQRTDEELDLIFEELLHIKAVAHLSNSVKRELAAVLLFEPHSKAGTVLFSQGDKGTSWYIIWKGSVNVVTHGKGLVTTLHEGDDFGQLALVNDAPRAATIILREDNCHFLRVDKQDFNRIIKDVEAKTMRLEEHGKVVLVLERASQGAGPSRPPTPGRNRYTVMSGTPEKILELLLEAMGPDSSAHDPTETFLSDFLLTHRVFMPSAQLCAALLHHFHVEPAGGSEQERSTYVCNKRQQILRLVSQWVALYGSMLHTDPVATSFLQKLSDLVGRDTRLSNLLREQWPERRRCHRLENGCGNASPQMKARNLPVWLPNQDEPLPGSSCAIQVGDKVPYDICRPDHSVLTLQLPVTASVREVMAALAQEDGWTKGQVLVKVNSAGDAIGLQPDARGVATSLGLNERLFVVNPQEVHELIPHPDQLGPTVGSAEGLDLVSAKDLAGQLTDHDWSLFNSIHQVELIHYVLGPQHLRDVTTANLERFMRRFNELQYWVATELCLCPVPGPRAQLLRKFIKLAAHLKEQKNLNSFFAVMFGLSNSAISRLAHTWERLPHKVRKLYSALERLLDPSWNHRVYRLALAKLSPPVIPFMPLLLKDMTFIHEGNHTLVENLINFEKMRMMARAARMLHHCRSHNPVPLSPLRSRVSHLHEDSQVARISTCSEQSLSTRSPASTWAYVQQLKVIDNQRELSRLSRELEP

SMILES | Potency [1] | Potency [2] | activation [2]
Cc1ccccc1CNC(=O)CCC(=O)N1CCSc2ccccc21 | inactive | inconclusive [activator, full curve, poor fit] | 
Fc1ccccc1C1CC(c2ccco2)=Nc2ccccc2S1 (stereo not drawn) | inconclusive [inhibitor, partial curve] | inconclusive [activator, partial curve, poor fit] | 
Cn1c(O)c(N=NC(=O)c2ccccc2O)c2ccccc21 | active: 53.6 µM |  | inconclusive: 30.4% [activator]
OCCCNc1ncnc2oc(-c3ccccc3)c(-c3ccccc3)c12 | inconclusive [inhibitor, partial curve] | inconclusive [activator, full curve, poor fit] | 
CCC(=O)NC(c1ccc(C)cc1)c1ccc2cccnc2c1O (stereo not drawn) | inactive | inactive | 
CCN(CC)C(=O)CSc1nnc(-c2cccs2)n1Cc1ccco1 | inconclusive [inhibitor, partial curve, poor fit] | inactive | 
CC1(C(=O)NS(=O)(=O)c2ccc(Cl)s2)CCN1C(=O)C1(c2ccc(Cl)cc2)CC1 (stereo not drawn) | active: 14.1 µM | inconclusive [activator, full curve, poor fit] | 
Cc1cccc(NC(=O)CN2C(=O)N/C(=C\c3ccccc3OCc3ccc(C(=O)O)cc3)C2=O)c1 | inconclusive [inhibitor, full curve] |  | inconclusive: 25% [activator]
COc1ccc(-c2c(-c3ccccc3OC)oc3ccccc23)cn1 | inactive |  | inactive: 7.21% [at 30.8 µM]
